Reference: PubChem BioAssay AID686979 (National Center for Advancing Translational Sciences (NCATS), 2013)
In all, about 420,000 compounds went through this assay and about 50,000 (12%) were called active. The inconclusive results got no clear call from the source; some entries with a clear call stand among them for comparison. Calls follow the shape of the dose curve; as a rule, active = well fitted inhibition curve with a large enough effect; inconclusive = small, poorly fitted or top-dose-only effect; inactive = flat fitted curve, though single readings scatter. No potency is given beside an inconclusive call; the fits are too rough.

Experiment: qHTS for Inhibitors of human tyrosyl-DNA phosphodiesterase 1 (TDP1): qHTS in cells in presence of CPT; also: nearly all actives have a fitted effect of over 55% in size
Details: chicken DT40 Tdp1-/-;hTDP1 cells + 20 nM CPT, ATP luminescence, 48 h; activity change, negative = growth inhibition: at 46.2 µM (top of the series) unless noted
How it was run: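 Chicken DT40 Tdp1-/- cells stably complemented with human TDP1 were seeded at 400 cells/well in medium containing 20 nM camptothecin, exposed to pin-transferred compounds, and grown at 37 °C for at least 48 hr. Viability was read as ATP luminescence.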
% is scaled to controls: 0 for no effect and ±100 for the full control effect; potency is read from the fitted curve at half-maximal effect; tags tell the direction and shape of the fitted curve.

| Structure (SMILES) | activity change, negative = growth inhibition | Potency |
| --- | --- | --- |
| CCc1cc(OCCN(C)C)ccc1Cl | inactive: 2.89% |  |
| CCOc1ccc(NC(=O)CN2CCN(CC(=O)Nc3cccc(F)c3)CC2)cc1 |  | inconclusive [inhibitor, single point] |
| Cn1c(=O)n(CCCc2ccccc2)c(=O)c2c1nc1n2CCN1c1ccccc1 |  | active: 7.31 µM |
| CCOc1ccc(CCNC(=O)c2ccc3c(c2)N(Cc2cccc(Cl)c2)C(=O)c2ccccc2S3(=O)=O)cc1OCC |  | inconclusive [inhibitor, partial curve, poor fit] |
| CC(C)(C)NC(=O)/C(=C\c1cccnc1)NC(=O)c1ccco1 | inactive: 2.99% |  |
| CCc1ccc2c(c1)NC(=O)C2(C)Cc1ccccc1 (stereo unspecified) |  | inconclusive [inhibitor, single point] |
| O=C(NC(=S)Nc1nc2c(ccc3ccccc32)s1)c1cccs1 |  | inconclusive [inhibitor, single point] |
| CCOC(=O)c1ccc(NC(=O)CN2C(=O)CC(c3ccc(C)c(C)c3)=Nc3ccccc32)cc1 |  | inconclusive [inhibitor, single point] |
| CC1=CC(=O)C(C(C)C)=C/C1=N/OC(=O)c1cccc([N+](=O)[O-])c1 |  | active: 23.1 µM |
| CCOC(=O)N1CCc2c(sc(NCc3sccc3C)c2C(=O)Nc2ccccc2OCC)C1 |  | inconclusive [inhibitor, single point] |
| CC(C)(C)OC(=O)N1CCC[C@H]1c1nnc(SCc2c(Cl)cccc2Cl)o1 |  | inconclusive [inhibitor, single point] |
| COCCOC(=O)c1[nH]c2c(c1C)C(=O)C(C(=O)OC)C(C)C2 (stereo unspecified) | inactive: 5.06% |  |
| Cc1c(Cl)cccc1NC(=O)NCCOCCn1c(=O)oc2ccccc21 |  | active: 8.2 µM |
| O=C(CSc1nc2sc3c(c2c(=O)n1-c1ccccc1)CCCC3)NCc1ccco1 |  | active: 14.6 µM |
| CCc1nc2ccc(C(=O)NCCOc3ccc(OC)cc3)cn2c1N(C)Cc1cccs1 |  | inconclusive [inhibitor, single point] |
| CCc1nc2oc3cc(OC)ccc3c(=O)c2c(=O)n1Cc1ccccc1 |  | inconclusive [inhibitor, partial curve] |
| CN1CCN(CCC(=O)N/N=C/c2ccccn2)CC1 | inactive: -33% |  |
| COCc1ccc(C(=O)N2CCN(CC(=O)N3CCCC3)CC2)cc1 | inactive: -5.48% |  |
| Cc1ccccc1CNC(=O)/C=C\C(=O)O | inactive: 2.67% |  |
| CCN(c1ccccc1)S(=O)(=O)c1cc(NC(=O)CN2CCN(C)CC2)ccc1Cl |  | inconclusive [inhibitor, single point] |
| O=C(NC(=S)Nc1ccc(N2CCCCC2)c(Cl)c1)c1ccc2c(c1)OCCO2 |  | active: 16.4 µM |
| Cc1ccc(NC(=O)C(C)N2CCCC2)cc1Cl (stereo unspecified) | inactive: 17.8% |  |
| Fc1ccc(/C=N/NC(=S)Nc2ccc(Cl)cc2Cl)cc1 |  | active: 7.31 µM |
| O=C(O)c1ccc(Nc2ccc(Cl)c(Cl)c2)c([N+](=O)[O-])c1 |  | inconclusive [inhibitor, single point] |

| Structure (SMILES) | activity change, negative = growth inhibition | Potency |
| --- | --- | --- |
| O=C(O)c1ccccc1NS(=O)(=O)c1cccc2nsnc12 | inactive: -4.57% |  |
| CCc1ccc(N2C(=O)CS(=O)(=O)C23C(=O)N(Cc2ccccc2F)c2ccccc23)cc1 (stereo unspecified) |  | inconclusive [inhibitor, single point] |
| COc1ccccc1CCNC(=O)C1CCC(=O)N(Cc2ccccc2OC)C1 (stereo unspecified) | inactive: -17.7% |  |
| Cc1ccnn1-c1ccc(C(=O)NCC(c2ccco2)N2CCCC2)cc1 (stereo unspecified) | inactive: -24% |  |
| Cc1sc(NC(=O)COc2ccc(C(C)(C)C)cc2)c(C(=O)OC(C)C)c1C |  | inconclusive [inhibitor, single point] |
| COc1ccccc1-c1noc(-c2ccccc2C(=O)NCC2CCCO2)n1 (stereo unspecified) | inactive: -24.6% |  |
| CCOc1cc(C2c3c(oc4ccccc4c3=O)C(=O)N2Cc2ccccc2Cl)ccc1O (stereo unspecified) |  | inconclusive [inhibitor, single point] |
| COc1ccccc1/C=C/CN1CCC(Oc2cc(C(=O)NC3CC3)ccc2OC)CC1 |  | inconclusive [inhibitor, single point] |
| C=CCn1c(=O)c2ccccc2n2nnc(C(=O)OCC)c12 | inactive: -7.06% |  |
| Cc1oc(C(C)(C)C)c(CN2CCOCC2)c1C(=O)O | inactive: 1.88% |  |
| CCN1CCN(C(=O)c2cnn(-c3cccc(C)c3)c2C2CCN(C(=O)OC(C)(C)C)CC2)CC1 |  | active: 20.6 µM |
| COc1cccc(CNC(=O)c2cccn2-c2nnc(N3CCCC3)s2)c1 |  | inconclusive [inhibitor, single point] |
| COc1cc2cc(C(c3nnnn3C(C)(C)C)N3CCc4ccccc43)c(=O)[nH]c2cc1OC (stereo unspecified) | inactive: -34.7% |  |
| Cc1ccccc1C(=O)Nc1ccccn1 | inactive: -1.36% |  |
| O=C(Cn1cc(SCc2ccc(F)cc2)c2ccccc21)N1CCOCC1 |  | inconclusive [inhibitor, partial curve] |
| O=C(/C=C/c1ccc(Cl)cc1)N(Cc1cccs1)C1CCS(=O)(=O)C1 (stereo unspecified) |  | inconclusive [inhibitor, single point] |
| CCn1c(SCC(=O)Nc2ncc(C(F)(F)F)cc2Cl)nnc1-c1ccccc1 | inactive: -14.1% |  |
| COc1ccc(C2CC(=O)c3c([nH]c(C(=O)OCCOc4ccccc4)c3C)C2)cc1OC (stereo unspecified) |  | inconclusive [inhibitor, single point] |
| CCn1cc(C(=O)N2CCN(c3ccccc3)CC2)c(=O)c2cc(S(=O)(=O)N3CCC(C)CC3)ccc21 |  | inconclusive [inhibitor, single point] |
| COc1nc(C)nc(C)c1Oc1ccc(Cl)cc1Cl | inactive: -6.06% |  |
| O=C(COc1ccc2ccccc2c1)Nc1ccccc1C(=O)O |  | inconclusive [inhibitor, single point] |
| COc1cc(/C=C/C(=O)OCC(=O)N2CC(C)OC(C)C2)ccc1OCC#N (stereo unspecified) | inactive: -3.95% |  |
| CCCCOc1ccc(C2/C(=C(/O)c3ccc4c(c3)CC(C)O4)C(=O)C(=O)N2CCCN2CCOCC2)cc1OC (stereo unspecified) |  | inconclusive [inhibitor, partial curve] |
| C#CC[N+](C)(C)CC#Cc1ccc(C)cc1 | inactive: -13% |  |

| Structure (SMILES) | activity change, negative = growth inhibition | Potency |
| --- | --- | --- |
| Cc1cccc(Nc2nc(-c3c(C)nc4ccccn34)cs2)c1 |  | active: 13 µM |
| Cc1c(Br)c([N+](=O)[O-])nn1CC(=O)Nc1ccc(C(C)C)cc1 |  | inconclusive [inhibitor, single point] |
| Cc1cc(C)c2cc(CN(CCN3CCCC3)C(=O)Nc3ccc(F)cc3)c(=O)[nH]c2c1 |  | active: 14.6 µM |
| COc1ccc(CNC(=O)C2CCN(S(=O)(=O)c3cn(C)cn3)CC2)cc1 | inactive: 10.2% |  |
| Cc1ccc2nc(-c3ccc(Cl)cc3)c(Cc3ccccn3)n2c1 |  | active: 18.4 µM |
| NC(=O)[C@H]1CC2(CC(c3cccc(NC(=O)COc4ccc(Cl)cc4)c3)=NO2)CN1C(=O)Cc1ccc([N+](=O)[O-])cc1 (stereo partly specified) |  | active: 13 µM |
| Cc1cc(NC(=O)Nc2ccc(N(C)C)cc2)c2cc(F)cc(F)c2n1 |  | inconclusive [inhibitor, partial curve, poor fit] |
| CC(C)Oc1ccc(CCC(=O)NNC(=O)CCC(=O)O)cc1 | inactive: 4.94% |  |
| COc1ccc(-c2nc(-c3ccccc3)nc(N3CCN(C)CC3)c2C#N)cc1 |  | inconclusive [inhibitor, single point] |
| CCCc1ccc(NC(C)C(=O)Nc2ccc(S(=O)(=O)N3CCOCC3)cc2)cc1 (stereo unspecified) |  | inconclusive [inhibitor, single point] |
| O=C1Cc2ccccc2C(=O)N1Nc1ccccc1 |  | inconclusive [inhibitor, single point] |
| Cc1ccc2c(CNC3CCC(C)CC3)c(C(=O)O)n(Cc3cccc(F)c3)c2c1 (stereo unspecified) |  | inconclusive [inhibitor, single point] |
| CCN(CC)CCNC(=O)c1ccc2c(c1)N(Cc1ccccc1)C(=O)c1ccccc1S2=O (stereo unspecified) |  | inconclusive [inhibitor, partial curve] |
| COc1ccc(CCNC(=O)c2cc(S(=O)(=O)N3CCOCC3)cn2C)cc1OC |  | inconclusive [inhibitor, single point] |
| Cc1cccc(C(=O)N(Cc2nc(-c3ccc(Cl)cc3)no2)C(C)C)c1 |  | inconclusive [inhibitor, single point] |
| COc1ccc(-c2cccc(NS(=O)(=O)c3cc([N+](=O)[O-])c(C)c([N+](=O)[O-])c3)c2)nn1 |  | inconclusive [inhibitor, single point] |
| COc1ccc(CCn2nnnc2C(c2ccc(Cl)cc2)N2CCN(C)CC2)cc1OC (stereo unspecified) |  | inconclusive [inhibitor, partial curve] |
| CCn1nc(C)c(C(=O)Nc2cc(Oc3cc(C)cc(C)c3)cc([N+](=O)[O-])c2)c1C |  | inconclusive [inhibitor, single point] |
| FC(F)(F)c1cc(-c2ccccc2)nc(NCc2cccs2)n1 |  | inconclusive [inhibitor, single point] |
| COc1ccc(-n2c(=O)c3sc4ccccc4c3n(Cc3ccccc3)c2=O)cc1 |  | inconclusive [inhibitor, partial curve] |
| CCc1ccc(OCC(=O)NCC(c2ccc(OC)cc2)N2CCOCC2)cc1 (stereo unspecified) |  | inconclusive [inhibitor, single point] |
| COc1ccc(N2CCN(C(=O)CCCN3C(=O)c4cccc5cccc(c45)C3=O)CC2)cc1 |  | inconclusive [inhibitor, single point] |
| COc1ccc2cc(-c3[nH]ncc3CN3CCCCO3)ccc2c1 |  | inconclusive [inhibitor, single point] |
